# The supplement of paper PMC8728848
# This is one part of the list.
# B1: GS7807E-bfa-538-23-538 (Bacteroides fragilis) (protein)
# chain: TDSFESFNTNEAGFDNDSKKQDFNYYGIPLGIIQQGIYFNYDWGSGKNWPFQTMQNLGADLFSGYVHDFNPFNEGKNNSTYYMMDGWNGSTWDNTYGYIMPEVQKSETINEKDNIGFFGITKILKVELMHRLSDLYGPIVYTQFGSKTGSTPDTQQEAYKAFFNDLDTGIAKIREYQKANPDIESFAKFDILMPQGKRTFSEWIRFANSLRLRLAVRIAMADSKLAVAEAQKALTDEEGLLEGNDEVVAVSTSSGYTNPFGEINKAWGEVFMNANMESLLVGYEDPRMEKYFDKATGSDATSLIDYKGTYKGIRQGTGFSHKNYNGHSKSTITQQTDAVLMTPAEVWFLRAEAALRGWSSESVKDCYEKGVKASFAQWGAAGAEAYLESDRKPSDYVDAFKAANNVKAVNTLTPKWDDAAGNEDKLGRIITQKWLAMFPEGGEAWAEQRRTGYPRLFPVLVNQSEGTVDTNLGPRRLNFFVGIKTTNPEQYTQLVNALGGIDNCGTRLWWDTGRNF
# What was measured:
# Assay in all cases: glycan array binding signal (z-score within array); higher = stronger binding
# Conditions in all cases: glycan notation: IUPAC condensed, linker removed
# [1] = target: Neu5Ac(a2-3)Gal(b1-4)GlcNAc(b1-2)[Neu5Ac(a2-3)Gal(b1-4)GlcNAc(b1-4)]Man(a1-3)[GlcNAc(b1-4)][Neu5Ac(a2-3)Gal(b1-4)GlcNAc(b1-4)Man(a1-6)]Man(b1-4)GlcNAc(b1-4)GlcNAc
# Outline: (§1)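 The binding signal is a Z-score computed within each array and averaged over linkers. Arrays of the same protein sequence at different concentrations or buffers were also averaged together. Data originate from 3228 arrays in the Consortium for Functional Glycomics database, kept only where the protein sequence was available.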
# [2] = target: Neu5Ac(a2-3)Gal(b1-4)GlcNAc(b1-2)[Neu5Ac(a2-3)Gal(b1-4)GlcNAc(b1-6)]Man(a1-6)[Neu5Ac(a2-3)Gal(b1-4)GlcNAc(b1-2)Man(a1-3)]Man(b1-4)GlcNAc(b1-4)GlcNAc
# Outline: as §1
# [3] = target: Neu5Ac(a2-3)Gal(b1-4)GlcNAc(b1-2)[Neu5Ac(a2-3)Gal(b1-4)GlcNAc(b1-6)]Man(a1-6)[Neu5Ac(a2-3)Gal(b1-4)GlcNAc(b1-2)Man(a1-3)][GlcNAc(b1-4)]Man(b1-4)GlcNAc(b1-4)GlcNAc
# Outline: as §1
# [4] = target: Neu5Ac(a2-3)Gal(b1-4)GlcNAc(b1-3)Gal
# Outline: as §1
# [5] = target: Neu5Ac(a2-3)Gal(b1-4)GlcNAc(b1-3)Gal(b1-3)GlcNAc
# Outline: as §1
# [6] = target: Neu5Ac(a2-3)Gal(b1-4)GlcNAc(b1-3)Gal(b1-4)GlcNAc
# Outline: as §1
# [7] = target: Neu5Ac(a2-3)Gal(b1-4)GlcNAc(b1-3)Gal(b1-4)GlcNAc(b1-2)Man(a1-3)[Neu5Ac(a2-3)Gal(b1-4)GlcNAc(b1-3)Gal(b1-4)GlcNAc(b1-2)Man(a1-6)]Man(b1-4)GlcNAc(b1-4)GlcNAc
# Outline: as §1
# [8] = target: Neu5Ac(a2-3)Gal(b1-4)GlcNAc(b1-3)Gal(b1-4)GlcNAc(b1-3)Gal(b1-4)GlcNAc
# Outline: as §1
# [9] = target: Neu5Ac(a2-3)Gal(b1-4)GlcNAc(b1-3)Gal(b1-4)GlcNAc(b1-3)Gal(b1-4)GlcNAc(b1-2)Man(a1-3)[Neu5Ac(a2-3)Gal(b1-4)GlcNAc(b1-3)Gal(b1-4)GlcNAc(b1-3)Gal(b1-4)GlcNAc(b1-2)Man(a1-6)]GalNAc
# Outline: as §1
# [10] = target: Neu5Ac(a2-3)Gal(b1-4)GlcNAc(b1-3)Gal(b1-4)GlcNAc(b1-3)GalNAc
# Outline: as §1
# [11] = target: Neu5Ac(a2-3)Gal(b1-4)GlcNAc(b1-3)Gal(b1-4)GlcNAc(b1-3)[Neu5Ac(a2-3)Gal(b1-4)GlcNAc(b1-3)Gal(b1-4)GlcNAc(b1-6)]GalNAc
# Outline: as §1
# [12] = target: Neu5Ac(a2-3)Gal(b1-4)GlcNAc(b1-3)Gal(b1-4)GlcNAc(b1-6)[Gal(b1-3)]GalNAc
# Outline: as §1
# [13] = target: Neu5Ac(a2-3)Gal(b1-4)GlcNAc(b1-3)Gal(b1-4)[Fuc(a1-3)]GlcNAc
# Outline: as §1
# [14] = target: Neu5Ac(a2-3)Gal(b1-4)GlcNAc(b1-3)GalNAc
# Outline: as §1
# [15] = target: Neu5Ac(a2-3)Gal(b1-4)GlcNAc(b1-3)[Neu5Ac(a2-3)Gal(b1-4)GlcNAc(b1-6)]GalNAc
# Outline: as §1
# [16] = target: Neu5Ac(a2-3)Gal(b1-4)GlcNAc(b1-6)GalNAc
# Outline: as §1
# [17] = target: Neu5Ac(a2-3)Gal(b1-4)GlcNAc(b1-6)[Gal(b1-3)]GalNAc
# Outline: as §1
# [18] = target: Neu5Ac(a2-3)Gal(b1-4)GlcNAc(b1-6)[Neu5Ac(a2-3)Gal(b1-3)]GalNAc
# Outline: as §1
# [19] = target: Neu5Ac(a2-3)Gal(b1-4)GlcNAc6S
# Outline: as §1
# [20] = target: Neu5Ac(a2-3)Gal(b1-4)[Fuc(a1-3)]GlcNAc
# Outline: as §1
# [21] = target: Neu5Ac(a2-3)Gal(b1-4)[Fuc(a1-3)]GlcNAc(b1-2)Man
# Outline: as §1
# [22] = target: Neu5Ac(a2-3)Gal(b1-4)[Fuc(a1-3)]GlcNAc(b1-3)Gal
# Outline: as §1
# [23] = target: Neu5Ac(a2-3)Gal(b1-4)[Fuc(a1-3)]GlcNAc(b1-3)Gal(b1-4)GlcNAc
# Outline: as §1
# [24] = target: Neu5Ac(a2-3)Gal(b1-4)[Fuc(a1-3)]GlcNAc(b1-3)Gal(b1-4)[Fuc(a1-3)]GlcNAc(b1-3)Gal(b1-4)[Fuc(a1-3)]GlcNAc
# Outline: as §1
# [25] = target: Neu5Ac(a2-3)Gal(b1-4)[Fuc(a1-3)]GlcNAc(b1-3)GalNAc
# Outline: as §1
# [26] = target: Neu5Ac(a2-3)Gal(b1-4)[Fuc(a1-3)]GlcNAc(b1-6)[Gal(b1-3)]GalNAc
# Outline: as §1
# [27] = target: Neu5Ac(a2-3)Gal(b1-4)[Fuc(a1-3)]GlcNAc(b1-6)[Neu5Ac(a2-3)Gal(b1-3)]GalNAc
# Outline: as §1
# [28] = target: Neu5Ac(a2-3)Gal(b1-4)[Fuc(a1-3)]GlcNAc6S
# Outline: as §1
# [29] = target: Neu5Ac(a2-3)Gal6S(b1-4)GlcNAc
# Outline: as §1
# [30] = target: Neu5Ac(a2-3)Gal6S(b1-4)[Fuc(a1-3)]GlcNAc
# Outline: as §1
# [31] = target: Neu5Ac(a2-3)GalNAc
# Outline: as §1
# [32] = target: Neu5Ac(a2-3)GalNAc(b1-4)GlcNAc
# Outline: as §1
# [33] = target: Neu5Ac(a2-3)[GalNAc(b1-4)]Gal(b1-4)Glc
# Outline: as §1
# [34] = target: Neu5Ac(a2-3)[GalNAc(b1-4)]Gal(b1-4)GlcNAc
# Outline: as §1
# [35] = target: Neu5Ac(a2-3)[GalNAc(b1-4)]Gal(b1-4)GlcNAc(b1-3)GalNAc
# Outline: as §1
# [36] = target: Neu5Ac(a2-3)[Neu5Ac(a2-6)]GalNAc
# Outline: as §1
# [37] = target: Neu5Ac(a2-6)Gal
# Outline: as §1
binder,measurement,setting,value
B1,glycan array binding signal (z-score),[1],-0.714
same,glycan array binding signal (z-score),[2],0.242
same,glycan array binding signal (z-score),[3],-0.676
same,glycan array binding signal (z-score),[4],-0.716
same,glycan array binding signal (z-score),[5],-0.667
same,glycan array binding signal (z-score),[6],-0.707
same,glycan array binding signal (z-score),[7],-0.106
same,glycan array binding signal (z-score),[8],-0.66
same,glycan array binding signal (z-score),[9],-0.121
same,glycan array binding signal (z-score),[10],-0.693
same,glycan array binding signal (z-score),[11],0.002
same,glycan array binding signal (z-score),[12],-0.401
same,glycan array binding signal (z-score),[13],-0.663
same,glycan array binding signal (z-score),[14],-0.711
same,glycan array binding signal (z-score),[15],-0.675
same,glycan array binding signal (z-score),[16],0.432
same,glycan array binding signal (z-score),[17],-0.679
same,glycan array binding signal (z-score),[18],-0.658
same,glycan array binding signal (z-score),[19],-0.628
same,glycan array binding signal (z-score),[20],-0.694
same,glycan array binding signal (z-score),[21],-0.622
same,glycan array binding signal (z-score),[22],-0.683
same,glycan array binding signal (z-score),[23],0.137
same,glycan array binding signal (z-score),[24],-0.554
same,glycan array binding signal (z-score),[25],-0.247
same,glycan array binding signal (z-score),[26],2.54
same,glycan array binding signal (z-score),[27],1.81
same,glycan array binding signal (z-score),[28],-0.618
same,glycan array binding signal (z-score),[29],-0.53
same,glycan array binding signal (z-score),[30],-0.667
same,glycan array binding signal (z-score),[31],-0.698
same,glycan array binding signal (z-score),[32],-0.699
same,glycan array binding signal (z-score),[33],-0.398
same,glycan array binding signal (z-score),[34],-0.316
same,glycan array binding signal (z-score),[35],1.47
same,glycan array binding signal (z-score),[36],-0.638
same,glycan array binding signal (z-score),[37],0.756
